According to paper PMC6143631 (Nature Communications, 2018):

Biological target: T1, CTR9^(1–249) (human, UniProt Q6PD62 part only)
T1 construct: In the crystal it stood as part of the single-chain fusion m9; source: E. coli BL21(DE3) Codon Plus, co-expressed with a PAF1 fragment, purified (Ni-NTA, SEC)
Assay: SEC; two fragments co-expressed in E. coli and co-purified; analytical size-exclusion column with SDS-PAGE of the fractions
Conditions: both partners purified

binding result: binds
B1: PAF1^([…])(D85N) (domain or fragment)
chain: not shown

binding result: binds
B2: PAF1^([…])(D95Y) (domain or fragment)
chain: not shown

Each block holds one binder with its values, some of them ahead of it.
